Repeats are few or missing, and single values can be far off.
Assays:
CHO-K1 [1] = assay: micronucleus frequency (% of nucleated events); higher = more micronuclei (genotoxic)
CHO-K1 [2] = assay: relative survival (nuclei to bead ratio vs DMSO control) (% of vehicle control); higher = more surviving cells
Description: (§1)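 Flow-cytometric in vitro micronucleus assay (Litron MicroFlow) in CHO-K1 cells in 96-well plates, 19 concentrations (4.5-200 µM, n=1 per concentration). Without S9, cells were exposed for 24 h and sampled at 48 h. With Aroclor 1254-induced rat liver S9, cells were exposed for 3-4 h and sampled at 27-28 h. Read-outs are %MN and %hypodiploid nuclei relative to nucleated events, and relative survival as the nuclei-to-bead ratio versus the 1% DMSO vehicle control (x100).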

CHO-K1 [3] = assay: hypodiploid nuclei frequency (% of nucleated events); higher = more hypodiploid events (aneugenic)
Description: as §1
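Wherever hypodiploid nuclei frequency (% of nucleated events) is given: hypodiploid nuclei gated on a flow cytometer with 488 nm excitation after SYTOX Green staining, cultures at 37 °C, positive controls vinblastine without S9 and cyclophosphamide with S9.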
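Wherever micronucleus frequency (% of nucleated events) is given: cells lysed with nuclei stained by SYTOX Green, then micronucleus-gated events counted against nucleated events by flow cytometry with 488 nm excitation.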
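Wherever relative survival (nuclei to bead ratio vs DMSO control) is given: Lysed-cell nuclei stained with SYTOX Green and counted against counting beads by flow cytometry at 488 nm excitation, with vinblastine (no S9) and cyclophosphamide (plus S9) as positive controls.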

Cc1occc(=O)c1O [Maltol]
Details	hypodiploid nuclei frequency, CHO-K1 [3] [%]	micronucleus frequency, CHO-K1 [1] [%]	relative survival, CHO-K1 [2]
concentration: 4.5 (µM), S9 metabolic activation: with S9, exposure time: 3-4 hours	0.2	1.72	115
concentration: 4.5 (µM), S9 metabolic activation: without S9, exposure time: 24 hours	0.44	1.74	88.6
concentration: 5.63 (µM), S9 metabolic activation: with S9, exposure time: 3-4 hours	0.3	1.4	106
concentration: 5.63 (µM), S9 metabolic activation: without S9, exposure time: 24 hours	0.74	1.84	98.8
concentration: 7.04 (µM), S9 metabolic activation: with S9, exposure time: 3-4 hours	0.1	1.5	129
concentration: 7.04 (µM), S9 metabolic activation: without S9, exposure time: 24 hours	0.8	1.64	97.3
concentration: 8.8 (µM), S9 metabolic activation: with S9, exposure time: 3-4 hours	0.24	1.42	98.9
concentration: 8.8 (µM), S9 metabolic activation: without S9, exposure time: 24 hours	0.74	2.1	96.3
concentration: 11 (µM), S9 metabolic activation: with S9, exposure time: 3-4 hours	0.24	1.28	110
concentration: 11 (µM), S9 metabolic activation: without S9, exposure time: 24 hours	0.62	1.9	98.3
concentration: 13.7 (µM), S9 metabolic activation: with S9, exposure time: 3-4 hours	0.3	1.36	104
concentration: 13.7 (µM), S9 metabolic activation: without S9, exposure time: 24 hours	0.86	2.3	110
concentration: 17.2 (µM), S9 metabolic activation: with S9, exposure time: 3-4 hours	0.26	1.3	121
concentration: 17.2 (µM), S9 metabolic activation: without S9, exposure time: 24 hours	0.96	2.44	100
concentration: 21.5 (µM), S9 metabolic activation: with S9, exposure time: 3-4 hours	0.36	1.64	104
concentration: 21.5 (µM), S9 metabolic activation: without S9, exposure time: 24 hours	0.72	1.72	105
concentration: 26.8 (µM), S9 metabolic activation: with S9, exposure time: 3-4 hours	0.22	1.24	98.7
concentration: 26.8 (µM), S9 metabolic activation: without S9, exposure time: 24 hours	0.88	1.52	88.6
concentration: 33.6 (µM), S9 metabolic activation: with S9, exposure time: 3-4 hours	0.28	1.86	101
concentration: 33.6 (µM), S9 metabolic activation: without S9, exposure time: 24 hours	0.92	1.72	86.6
concentration: 41.9 (µM), S9 metabolic activation: with S9, exposure time: 3-4 hours	0.32	1.28	113
concentration: 41.9 (µM), S9 metabolic activation: without S9, exposure time: 24 hours	0.74	1.48	93
concentration: 52.4 (µM), S9 metabolic activation: with S9, exposure time: 3-4 hours	0.22	1.36	92.9
concentration: 52.4 (µM), S9 metabolic activation: without S9, exposure time: 24 hours	0.78	1.48	73.2
concentration: 65.5 (µM), S9 metabolic activation: with S9, exposure time: 3-4 hours	0.4	1.54	126
concentration: 65.5 (µM), S9 metabolic activation: without S9, exposure time: 24 hours	0.92	1.5	76.7
concentration: 81.9 (µM), S9 metabolic activation: with S9, exposure time: 3-4 hours	0.32	1.78	114
concentration: 81.9 (µM), S9 metabolic activation: without S9, exposure time: 24 hours	0.98	1.88	79.6
concentration: 102 (µM), S9 metabolic activation: with S9, exposure time: 3-4 hours	0.36	1	111
concentration: 102 (µM), S9 metabolic activation: without S9, exposure time: 24 hours	1.18	1.68	92.1
concentration: 128 (µM), S9 metabolic activation: with S9, exposure time: 3-4 hours	0.24	1.44	121
concentration: 128 (µM), S9 metabolic activation: without S9, exposure time: 24 hours	1.56	1.96	85.8
concentration: 160 (µM), S9 metabolic activation: with S9, exposure time: 3-4 hours	0.26	1.5	129
concentration: 160 (µM), S9 metabolic activation: without S9, exposure time: 24 hours	1.38	2.4	100
concentration: 200 (µM), S9 metabolic activation: with S9, exposure time: 3-4 hours	0.36	1.34	125
concentration: 200 (µM), S9 metabolic activation: without S9, exposure time: 24 hours	1.92	2.64	89.9

CCc1cccc(C)c1N(C(=O)CCl)C(C)COC (centres undefined) [Metolachlor]
Details	hypodiploid nuclei frequency, CHO-K1 [3] [%]	micronucleus frequency, CHO-K1 [1] [%]	relative survival, CHO-K1 [2]
concentration: 4.5 (µM), S9 metabolic activation: with S9, exposure time: 3-4 hours	0.18	1.46	167
concentration: 4.5 (µM), S9 metabolic activation: without S9, exposure time: 24 hours	0.72	2.46	145
concentration: 5.63 (µM), S9 metabolic activation: with S9, exposure time: 3-4 hours	0.38	1.42	136
concentration: 5.63 (µM), S9 metabolic activation: without S9, exposure time: 24 hours	0.7	3.48	146
concentration: 7.04 (µM), S9 metabolic activation: with S9, exposure time: 3-4 hours	0.32	1.64	152
concentration: 7.04 (µM), S9 metabolic activation: without S9, exposure time: 24 hours	0.58	2.2	140
concentration: 8.8 (µM), S9 metabolic activation: with S9, exposure time: 3-4 hours	0.2	1.42	144
concentration: 8.8 (µM), S9 metabolic activation: without S9, exposure time: 24 hours	0.46	2.9	145
concentration: 11 (µM), S9 metabolic activation: with S9, exposure time: 3-4 hours	0.12	1.26	128
concentration: 11 (µM), S9 metabolic activation: without S9, exposure time: 24 hours	0.9	2.88	149
concentration: 13.7 (µM), S9 metabolic activation: with S9, exposure time: 3-4 hours	0.18	1.62	109
concentration: 13.7 (µM), S9 metabolic activation: without S9, exposure time: 24 hours	0.72	2.86	139
concentration: 17.2 (µM), S9 metabolic activation: with S9, exposure time: 3-4 hours	0.16	1.9	129
concentration: 17.2 (µM), S9 metabolic activation: without S9, exposure time: 24 hours	0.62	2.68	141
concentration: 21.5 (µM), S9 metabolic activation: with S9, exposure time: 3-4 hours	0.14	1.84	129
concentration: 21.5 (µM), S9 metabolic activation: without S9, exposure time: 24 hours	0.68	2.1	120
concentration: 26.8 (µM), S9 metabolic activation: with S9, exposure time: 3-4 hours	0.22	0.86	122
concentration: 26.8 (µM), S9 metabolic activation: without S9, exposure time: 24 hours	0.8	1.5	142
concentration: 33.6 (µM), S9 metabolic activation: with S9, exposure time: 3-4 hours	0.16	1.3	156
concentration: 33.6 (µM), S9 metabolic activation: without S9, exposure time: 24 hours	0.9	2.74	162
concentration: 41.9 (µM), S9 metabolic activation: with S9, exposure time: 3-4 hours	0.14	1.02	117
concentration: 41.9 (µM), S9 metabolic activation: without S9, exposure time: 24 hours	0.56	1.58	144
concentration: 52.4 (µM), S9 metabolic activation: with S9, exposure time: 3-4 hours	0.26	0.94	122
concentration: 52.4 (µM), S9 metabolic activation: without S9, exposure time: 24 hours	0.7	1.82	129
concentration: 65.5 (µM), S9 metabolic activation: with S9, exposure time: 3-4 hours	0.16	1.24	104
concentration: 65.5 (µM), S9 metabolic activation: without S9, exposure time: 24 hours	0.68	1.84	129
concentration: 81.9 (µM), S9 metabolic activation: with S9, exposure time: 3-4 hours	0.2	1.24	114
concentration: 81.9 (µM), S9 metabolic activation: without S9, exposure time: 24 hours	0.74	2.18	126
concentration: 102 (µM), S9 metabolic activation: with S9, exposure time: 3-4 hours	0.2	1.28	119
concentration: 102 (µM), S9 metabolic activation: without S9, exposure time: 24 hours	0.9	1.76	113
concentration: 128 (µM), S9 metabolic activation: with S9, exposure time: 3-4 hours	0.3	1.3	104
concentration: 128 (µM), S9 metabolic activation: without S9, exposure time: 24 hours	0.78	1.74	130
concentration: 160 (µM), S9 metabolic activation: with S9, exposure time: 3-4 hours	0.19	1.65	93.9
concentration: 160 (µM), S9 metabolic activation: without S9, exposure time: 24 hours	1.04	2.08	94.2
concentration: 200 (µM), S9 metabolic activation: with S9, exposure time: 3-4 hours	0.2	1.55	96.6
concentration: 200 (µM), S9 metabolic activation: without S9, exposure time: 24 hours	1.1	1.88	77.7

O=Cc1ccco1 [Furfural]
Details	hypodiploid nuclei frequency, CHO-K1 [3] [%]	micronucleus frequency, CHO-K1 [1] [%]	relative survival, CHO-K1 [2]
concentration: 4.53 (µM), S9 metabolic activation: with S9, exposure time: 3-4 hours	0.38	1.94	98.9
concentration: 4.53 (µM), S9 metabolic activation: without S9, exposure time: 24 hours	0.48	1.52	96.8
concentration: 5.66 (µM), S9 metabolic activation: with S9, exposure time: 3-4 hours	0.36	1.64	93.3
concentration: 5.66 (µM), S9 metabolic activation: without S9, exposure time: 24 hours	0.64	1.68	118
concentration: 7.07 (µM), S9 metabolic activation: with S9, exposure time: 3-4 hours	0.32	1.94	99.9
concentration: 7.07 (µM), S9 metabolic activation: without S9, exposure time: 24 hours	0.64	1.22	97.3
concentration: 8.84 (µM), S9 metabolic activation: with S9, exposure time: 3-4 hours	0.34	2.06	93.3
concentration: 8.84 (µM), S9 metabolic activation: without S9, exposure time: 24 hours	0.7	1.64	114
concentration: 11.1 (µM), S9 metabolic activation: with S9, exposure time: 3-4 hours	0.28	2.1	81.2
concentration: 11.1 (µM), S9 metabolic activation: without S9, exposure time: 24 hours	0.62	1.4	105
concentration: 13.8 (µM), S9 metabolic activation: with S9, exposure time: 3-4 hours	0.22	1.9	89.7
concentration: 13.8 (µM), S9 metabolic activation: without S9, exposure time: 24 hours	0.48	1.64	88.6
concentration: 17.3 (µM), S9 metabolic activation: with S9, exposure time: 3-4 hours	0.28	2.24	104
concentration: 17.3 (µM), S9 metabolic activation: without S9, exposure time: 24 hours	0.76	2	109
concentration: 21.6 (µM), S9 metabolic activation: with S9, exposure time: 3-4 hours	0.24	1.86	115
concentration: 21.6 (µM), S9 metabolic activation: without S9, exposure time: 24 hours	0.54	1.54	103
concentration: 27 (µM), S9 metabolic activation: with S9, exposure time: 3-4 hours	0.28	1.38	105
concentration: 27 (µM), S9 metabolic activation: without S9, exposure time: 24 hours	0.74	1.74	101
concentration: 33.7 (µM), S9 metabolic activation: with S9, exposure time: 3-4 hours	0.26	1.38	86.8
concentration: 33.7 (µM), S9 metabolic activation: without S9, exposure time: 24 hours	0.48	1.78	144
concentration: 42.2 (µM), S9 metabolic activation: with S9, exposure time: 3-4 hours	0.36	2.12	99.2
concentration: 42.2 (µM), S9 metabolic activation: without S9, exposure time: 24 hours	0.48	1.32	129
concentration: 52.7 (µM), S9 metabolic activation: with S9, exposure time: 3-4 hours	0.2	2.34	79.6
concentration: 52.7 (µM), S9 metabolic activation: without S9, exposure time: 24 hours	0.46	1.64	115
concentration: 65.9 (µM), S9 metabolic activation: with S9, exposure time: 3-4 hours	0.1	2.12	75.8
concentration: 65.9 (µM), S9 metabolic activation: without S9, exposure time: 24 hours	0.7	1.54	101
concentration: 82.3 (µM), S9 metabolic activation: with S9, exposure time: 3-4 hours	0.32	2.06	82.3
concentration: 82.3 (µM), S9 metabolic activation: without S9, exposure time: 24 hours	0.5	2.16	133
concentration: 103 (µM), S9 metabolic activation: with S9, exposure time: 3-4 hours	0.24	3.58	74.1
concentration: 103 (µM), S9 metabolic activation: without S9, exposure time: 24 hours	0.72	1.78	97.8
concentration: 129 (µM), S9 metabolic activation: with S9, exposure time: 3-4 hours	0.18	1.76	109
concentration: 129 (µM), S9 metabolic activation: without S9, exposure time: 24 hours	1.08	1.98	98.3
concentration: 161 (µM), S9 metabolic activation: with S9, exposure time: 3-4 hours	0.48	3.26	77.2
concentration: 161 (µM), S9 metabolic activation: without S9, exposure time: 24 hours	0.84	2.42	132
concentration: 201 (µM), S9 metabolic activation: with S9, exposure time: 3-4 hours	0.16	2.88	83.9
concentration: 201 (µM), S9 metabolic activation: without S9, exposure time: 24 hours	1.04	2.56	112

— the supplement of paper PMC9151546
